The target of the assay is T1, mouse CD47 (Mus musculus, UniProt Q61735).
T1 construct: Analogous experiments were conducted in EG7 cells expressing mouse CD47; endogenous in cells; host or cells: EG7 cells
T1 sequence (Q61735 19-303): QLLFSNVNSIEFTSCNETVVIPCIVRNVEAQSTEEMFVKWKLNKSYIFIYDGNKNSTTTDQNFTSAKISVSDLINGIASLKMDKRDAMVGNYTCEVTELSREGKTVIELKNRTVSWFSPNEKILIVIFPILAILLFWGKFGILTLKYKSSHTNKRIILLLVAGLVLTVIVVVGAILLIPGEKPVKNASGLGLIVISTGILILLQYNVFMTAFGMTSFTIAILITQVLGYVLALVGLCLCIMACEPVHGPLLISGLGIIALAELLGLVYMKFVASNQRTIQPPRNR
As to the kind of experiment: Cell-based ligand-binding assay in EG7 cells expressing mouse CD47. To be noted: FIG. 11B. As to the method: About 200,000 Raji cells were stained with indicated concentration of SIRPα-FC protein in cell staining buffer (Biolegend CAT #420201) for 20 min at RT. After washing cell staining buffer, the cells were incubated with PE labeled anti-human-IgG-FC for 20 min at RT, and then the cells were washed and analyzed by flow cytometry.

B1: fusion protein 1054: SEQ ID NO: 7; a high affinity SIRPα construct, bivalent (protein)
chain: EEELQIIQPDKSVLVAAGETATLRCTITSLFPVGPIQWFRGAGPGRVLIYNQRQGPFPRVTTVSDTTKRNNMDFSIRIGNITPADAGTYYCIKFRKGSPDDVEFKSGAGTELSVRAKGG[human IgG1 Fc not printed]
As to B1, the “cross-reactivity with mouse CD47” value is “cross-reacts with mouse”.

The values above are taken from patent publication US20260103501A1, “MRNA Therapies Including SIRP-ALPHA” (NUTCRACKER THERAPEUTICS, INC., priority 2022, published 2026).
